Results are given in words; binding and its absence hold for the method and conditions named. In cells and extracts the contact can be indirect. Some binding calls cover weakened binding; strength is not graded here. For some assays here: Tags and fused reporters may be left off the sequences shown. One block for each substance: values may come before it.
How the values were obtained:
[1] = target: T1, FAM134C (endogenous, C2C12 cells) (mouse (endogenous in C2C12)) (UniProt Q9CQV4); assay: co-IP; endogenous FAM134C immunoprecipitated by FAM134C antibody in HEK293T, C2C12, A549, U2OS (FAM134C knockout U2OS as control), BMPR1A detected by Western blotting; also U2OS with stable knock-down of ATG5 or BECN1
T1 sequence: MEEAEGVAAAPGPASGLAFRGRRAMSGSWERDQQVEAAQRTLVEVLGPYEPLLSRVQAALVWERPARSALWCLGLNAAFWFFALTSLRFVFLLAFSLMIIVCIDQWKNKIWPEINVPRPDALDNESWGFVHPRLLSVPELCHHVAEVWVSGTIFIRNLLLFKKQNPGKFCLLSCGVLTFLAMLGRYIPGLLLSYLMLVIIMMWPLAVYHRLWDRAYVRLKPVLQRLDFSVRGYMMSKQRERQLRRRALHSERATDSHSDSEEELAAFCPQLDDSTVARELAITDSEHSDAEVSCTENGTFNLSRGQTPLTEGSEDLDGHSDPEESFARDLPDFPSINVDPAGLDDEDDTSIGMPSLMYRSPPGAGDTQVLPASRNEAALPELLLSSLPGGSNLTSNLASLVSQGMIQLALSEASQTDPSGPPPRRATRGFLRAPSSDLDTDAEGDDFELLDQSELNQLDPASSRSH

Chains of the proteins cited; added tags and fusions are not shown. Lines headed by an entry give the natural chain unless they say otherwise; changes in a name come on top. Residues count along the entry.
UniProt Q86VR2: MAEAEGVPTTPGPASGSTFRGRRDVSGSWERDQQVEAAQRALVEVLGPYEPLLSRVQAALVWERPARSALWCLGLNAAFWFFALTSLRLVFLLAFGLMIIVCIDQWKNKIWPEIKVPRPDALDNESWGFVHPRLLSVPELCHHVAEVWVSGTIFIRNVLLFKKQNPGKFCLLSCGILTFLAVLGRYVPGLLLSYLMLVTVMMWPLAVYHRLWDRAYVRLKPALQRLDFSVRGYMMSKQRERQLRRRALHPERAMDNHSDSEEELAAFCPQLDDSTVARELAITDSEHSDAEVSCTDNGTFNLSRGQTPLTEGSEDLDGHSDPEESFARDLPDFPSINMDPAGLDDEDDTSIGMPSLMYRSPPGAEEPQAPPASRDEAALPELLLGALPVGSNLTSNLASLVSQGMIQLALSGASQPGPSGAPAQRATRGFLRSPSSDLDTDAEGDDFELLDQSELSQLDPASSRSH
UniProt Q9H6L5: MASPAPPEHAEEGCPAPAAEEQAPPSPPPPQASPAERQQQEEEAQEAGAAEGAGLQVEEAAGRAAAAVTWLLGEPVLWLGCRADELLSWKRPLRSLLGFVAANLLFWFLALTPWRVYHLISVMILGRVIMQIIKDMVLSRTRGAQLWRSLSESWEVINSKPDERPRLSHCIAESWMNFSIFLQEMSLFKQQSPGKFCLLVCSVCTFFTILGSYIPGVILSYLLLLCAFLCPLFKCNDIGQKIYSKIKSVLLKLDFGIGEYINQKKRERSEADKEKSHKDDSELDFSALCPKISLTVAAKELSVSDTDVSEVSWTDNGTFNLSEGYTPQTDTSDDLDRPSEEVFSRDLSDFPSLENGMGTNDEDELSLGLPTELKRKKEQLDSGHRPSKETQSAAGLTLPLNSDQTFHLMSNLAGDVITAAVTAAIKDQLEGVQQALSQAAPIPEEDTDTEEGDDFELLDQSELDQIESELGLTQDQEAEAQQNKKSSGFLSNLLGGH
UniProt P36894: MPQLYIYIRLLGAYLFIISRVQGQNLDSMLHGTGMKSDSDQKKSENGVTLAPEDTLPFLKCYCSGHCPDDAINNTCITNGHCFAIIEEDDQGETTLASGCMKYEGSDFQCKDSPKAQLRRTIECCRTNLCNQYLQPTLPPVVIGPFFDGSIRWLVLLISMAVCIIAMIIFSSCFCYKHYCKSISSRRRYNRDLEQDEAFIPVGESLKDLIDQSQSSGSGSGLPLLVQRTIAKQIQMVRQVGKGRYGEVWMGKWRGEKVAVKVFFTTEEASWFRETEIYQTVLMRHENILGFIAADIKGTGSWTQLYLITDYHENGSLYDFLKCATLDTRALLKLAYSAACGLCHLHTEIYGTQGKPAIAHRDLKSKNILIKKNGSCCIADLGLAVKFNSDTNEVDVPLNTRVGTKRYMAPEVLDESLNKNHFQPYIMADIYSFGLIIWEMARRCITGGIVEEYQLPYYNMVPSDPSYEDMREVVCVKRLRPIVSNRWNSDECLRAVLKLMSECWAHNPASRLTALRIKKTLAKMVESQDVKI
UniProt Q99717: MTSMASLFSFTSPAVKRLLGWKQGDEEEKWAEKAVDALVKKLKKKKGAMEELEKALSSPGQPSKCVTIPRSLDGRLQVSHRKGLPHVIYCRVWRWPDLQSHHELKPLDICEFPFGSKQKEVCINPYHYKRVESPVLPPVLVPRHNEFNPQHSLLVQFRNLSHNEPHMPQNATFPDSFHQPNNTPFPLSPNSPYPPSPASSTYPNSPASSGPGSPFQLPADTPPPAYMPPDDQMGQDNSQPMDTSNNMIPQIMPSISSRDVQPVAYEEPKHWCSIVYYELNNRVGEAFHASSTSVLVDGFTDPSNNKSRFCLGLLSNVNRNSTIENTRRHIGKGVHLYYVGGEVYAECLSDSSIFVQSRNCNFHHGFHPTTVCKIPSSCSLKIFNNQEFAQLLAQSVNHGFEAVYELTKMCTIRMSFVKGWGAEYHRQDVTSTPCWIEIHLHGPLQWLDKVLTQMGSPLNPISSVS
UniProt P36895, residues 24-532: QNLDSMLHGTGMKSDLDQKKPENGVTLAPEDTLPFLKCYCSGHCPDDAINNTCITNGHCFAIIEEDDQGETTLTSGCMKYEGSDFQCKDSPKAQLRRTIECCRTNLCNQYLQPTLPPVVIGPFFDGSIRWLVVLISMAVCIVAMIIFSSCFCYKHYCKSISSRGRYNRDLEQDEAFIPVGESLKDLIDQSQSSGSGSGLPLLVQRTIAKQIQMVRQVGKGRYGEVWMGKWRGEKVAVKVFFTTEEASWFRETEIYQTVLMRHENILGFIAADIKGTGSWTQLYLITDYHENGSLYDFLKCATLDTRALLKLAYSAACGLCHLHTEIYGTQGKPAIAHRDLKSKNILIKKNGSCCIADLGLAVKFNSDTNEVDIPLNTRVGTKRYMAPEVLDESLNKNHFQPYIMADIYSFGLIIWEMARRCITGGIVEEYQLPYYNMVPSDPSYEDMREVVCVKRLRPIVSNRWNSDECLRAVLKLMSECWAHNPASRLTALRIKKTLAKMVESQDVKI
UniProt Q13873, residues 27-1038: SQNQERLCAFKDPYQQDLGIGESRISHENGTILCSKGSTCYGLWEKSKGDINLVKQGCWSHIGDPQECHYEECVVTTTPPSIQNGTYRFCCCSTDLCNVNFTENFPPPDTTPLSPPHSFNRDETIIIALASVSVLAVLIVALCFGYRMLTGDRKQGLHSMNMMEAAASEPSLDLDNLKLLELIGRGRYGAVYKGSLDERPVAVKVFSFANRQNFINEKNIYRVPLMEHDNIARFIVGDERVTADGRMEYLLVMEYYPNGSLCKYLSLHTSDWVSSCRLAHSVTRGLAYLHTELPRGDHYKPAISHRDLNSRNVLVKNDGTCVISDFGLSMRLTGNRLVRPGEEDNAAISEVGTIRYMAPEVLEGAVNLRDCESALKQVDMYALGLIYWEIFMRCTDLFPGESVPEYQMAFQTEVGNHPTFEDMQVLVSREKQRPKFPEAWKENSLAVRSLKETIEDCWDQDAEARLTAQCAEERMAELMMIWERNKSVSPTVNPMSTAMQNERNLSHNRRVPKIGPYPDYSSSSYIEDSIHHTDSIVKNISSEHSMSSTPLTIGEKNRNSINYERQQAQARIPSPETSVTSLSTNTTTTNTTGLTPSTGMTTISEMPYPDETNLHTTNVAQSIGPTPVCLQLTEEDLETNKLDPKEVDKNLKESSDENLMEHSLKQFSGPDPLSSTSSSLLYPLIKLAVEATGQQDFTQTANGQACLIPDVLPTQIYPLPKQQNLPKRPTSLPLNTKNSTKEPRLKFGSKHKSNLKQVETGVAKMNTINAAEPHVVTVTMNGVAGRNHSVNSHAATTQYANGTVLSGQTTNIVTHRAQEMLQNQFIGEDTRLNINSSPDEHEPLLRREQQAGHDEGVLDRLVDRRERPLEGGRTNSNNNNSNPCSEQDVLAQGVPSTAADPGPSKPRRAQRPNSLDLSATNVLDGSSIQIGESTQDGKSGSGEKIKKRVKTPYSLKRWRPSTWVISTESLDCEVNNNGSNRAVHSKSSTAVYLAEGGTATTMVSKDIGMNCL

[2] = target: FAM134C (endogenous, human cell lines) (human (endogenous in HEK293T, A549, U2OS)) (UniProt Q86VR2); assay: as above
FAM134C-FLAG = FAM134C-FLAG (UniProt Q86VR2); assay: co-IP; HEK293T co-transfected, harvested 24 h after transfection; FLAG-tagged FAM134 protein immunoprecipitated with anti-FLAG antibody and protein A Sepharose; HA-tagged partner or endogenous LC3 detected by Western blotting
FAM134A-FLAG = target: T2, FAM134A-FLAG (UniProt Q8NC44); assay: as above
T2 sequence: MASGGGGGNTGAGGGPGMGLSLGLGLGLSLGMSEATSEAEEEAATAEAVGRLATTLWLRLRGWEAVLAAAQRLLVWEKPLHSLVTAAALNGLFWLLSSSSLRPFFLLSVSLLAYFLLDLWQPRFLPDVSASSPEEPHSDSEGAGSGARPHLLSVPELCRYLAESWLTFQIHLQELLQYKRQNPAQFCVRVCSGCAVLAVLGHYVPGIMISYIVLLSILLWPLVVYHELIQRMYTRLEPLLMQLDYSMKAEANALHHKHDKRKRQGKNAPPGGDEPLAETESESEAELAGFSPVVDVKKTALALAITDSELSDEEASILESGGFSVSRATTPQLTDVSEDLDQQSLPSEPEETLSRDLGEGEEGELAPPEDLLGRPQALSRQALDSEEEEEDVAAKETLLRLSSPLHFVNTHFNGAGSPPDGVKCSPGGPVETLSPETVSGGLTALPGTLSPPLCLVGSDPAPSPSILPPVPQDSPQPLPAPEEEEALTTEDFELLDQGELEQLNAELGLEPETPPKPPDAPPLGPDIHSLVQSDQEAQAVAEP

FAM134B-FLAG = FAM134B-FLAG (UniProt Q9H6L5); assay: as above
[3] = target: BMPR1A-HA (in vitro translated) (UniProt P36894); assay: co-IP; in vitro translated (TNT system) Smad5-HA or BMPR1A-HA incubated with MYC-FAM134C, immunoprecipitation with anti-HA antibodies, Western blotting
[4] = target: Smad5-HA (in vitro translated) (UniProt Q99717); assay: as above
YC-FAM134C = YC-FAM134C (UniProt Q86VR2); assay: split reporter; BiFC: YN and YC fragments of YFP/Venus fused to the partners in pcDNA3, co-transfected in U2OS or A549 cells, confocal microscopy

- binding [1]: binds
Substance: BMPR1A (endogenous, C2C12 cells) (from UniProt P36895 24-532) (receptor)

- binding [2]: binds
Substance: BMPR1A (endogenous, human cell lines) (from UniProt P36894 24-532) (receptor)

- binding (FAM134C-FLAG): no binding
Substance: BMPR1A(ECD)-HA (from UniProt P36894 24-152) (domain or fragment)

- binding (FAM134A-FLAG): no binding
- binding (FAM134B-FLAG): binds weakly
- binding (FAM134C-FLAG): binds
Substance: BMPR1A-HA (from UniProt P36894 24-532) (receptor)

- binding (FAM134C-FLAG): no binding
Substance: BMPR2-HA (from UniProt Q13873 27-1038) (receptor)

- binding [3]: binds
- binding [4]: no binding
Substance: MYC-FAM134C (from UniProt Q86VR2 1-466)

- binding (FAM134C-FLAG): no binding
Substance: Smad5-HA (from UniProt Q99717 1-465)

- binding (YC-FAM134C): binds
Substance: YN-BMPR1A (from UniProt P36894 24-532) (receptor)

— article PMC12669696
